# In PubChem BioAssay AID686979 (National Center for Advancing Translational Sciences (NCATS), 2013):
# The whole screen tested about 420,000 compounds, of which about 50,000 (12%) were called active. This list was built around the results that the source calls inconclusive (neither active nor inactive); the mix of calls is not that of the screen. Calls follow the shape of the dose curve; as a rule, active = well fitted inhibition curve with a large enough effect; inconclusive = small, poorly fitted or top-dose-only effect; inactive = flat fitted curve, though single readings scatter. No potency is given beside an inconclusive call; the fits are too rough.
# Test: qHTS for Inhibitors of human tyrosyl-DNA phosphodiesterase 1 (TDP1): qHTS in cells in presence of CPT; also: nearly all actives have a fitted effect of over 55% in size
# Conditions: chicken DT40 Tdp1-/-;hTDP1 cells + 20 nM CPT, ATP luminescence, 48 h; activity change, negative = growth inhibition: at 46.2 µM (top of the series) unless noted
# Method in brief: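 Chicken DT40 Tdp1-/- cells complemented with human TDP1, 400 cells/well, exposed to compounds plus 20 nM camptothecin for at least 48 h at 37 C; viability read as ATP content by CellTiter-Glo luminescence.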
# % is scaled to controls: 0 for no effect and ±100 for the full control effect; potency is read from the fitted curve at half-maximal effect; tags tell the direction and shape of the fitted curve.
Structure (SMILES),Potency,"activity change, negative = growth inhibition"
CCn1cc(C(=O)NCCC(C)C)c(=O)c2cc(S(=O)(=O)N3CCCCC3)ccc21,active: 23.1 µM,
COc1ccc2c(c1)c(CC(=O)OCC(N)=O)c(C)n2C(=O)c1ccc(Cl)cc1,"inconclusive [inhibitor, single point]",
CN(Cc1c(F)cccc1Cl)C(=O)c1ccc(NC(=O)CC2SC(N3CCCC3)=NC2=O)cc1 (stereo not given),"inconclusive [inhibitor, single point]",
CN(C)C(=O)c1cc(C(=O)c2ccccc2Br)c[nH]1,inactive,
CCN(CC(=O)Nc1ccc(NC(C)=O)cc1)C(=O)CCCOc1cccc(C)c1,"inconclusive [inhibitor, partial curve]",
Cc1cc(NC(=O)c2cc(-c3ccco3)on2)no1,,inconclusive: -35.8% [inhibitor]
CN(C)c1ccc(/C=C/c2c3c(nc4ccccc24)CCCC3)cc1,"inconclusive [inhibitor, single point]",
C/C(=N\NC(=O)c1ccccc1F)c1cccc(NC(=O)c2ccc(C)cc2)c1,"inconclusive [inhibitor, single point]",
CCn1c2ccccc2c2nnc(SCC(=O)N(C)C3CCS(=O)(=O)C3)nc21 (stereo not given),inactive,
CCOC(=O)C(/C=C(\C#N)C(=O)OCC)=C(/N)N1CCN(c2ccc(OC)cc2)CC1,inactive,
Cc1cc(C)cc(NC(=S)Nc2cccc3ccccc23)c1,"inconclusive [inhibitor, single point]",
COC(=O)c1ccc(N2CCN(S(=O)(=O)c3ccc4ccccc4c3)CC2)c([N+](=O)[O-])c1,active: 16.4 µM,
Cc1nnc(N2CCN(C(=O)Nc3cc(F)ccc3F)CC2)c2nn(-c3ccc(Cl)cc3)c(C)c12,active: 20.6 µM,
CC1CCCC(C)N1CCCNC(=O)c1ccc2nc(N3CCCCC3)sc2c1 (stereo not given),inactive,
CCC(Oc1ccc(C)c(C)c1)C(=O)N1CCCN(C)CC1 (stereo not given),inactive,
c1ccc(CCSc2ncnc3nc[nH]c23)cc1,active: 16.4 µM,
CN1CCN(C(=O)c2ccc3c(c2)N(Cc2ccccc2F)C(=O)c2ccccc2S3=O)CC1 (stereo not given),"inconclusive [inhibitor, full curve, poor fit]",
Cc1ccc(C(=O)N2CC(C)CC(C)C2)cc1S(=O)(=O)N1CCCCC1 (stereo not given),"inconclusive [inhibitor, single point]",
CCCC(C)NC(=O)c1sc2nc3n(c(=O)c2c1C)CCC3 (stereo not given),inactive,
COC(=O)c1ccc(CSc2ccccc2NC(=S)Nc2cccc(C(F)(F)F)c2)o1,"inconclusive [inhibitor, single point]",
O=C(Nc1nc(-c2ccc(F)c(F)c2)cs1)C1=COCCO1,"inconclusive [inhibitor, single point]",
O=C(Nc1ccccc1Cl)c1sccc1-c1ccccc1,"inconclusive [inhibitor, single point]",
O=C(Nc1ccc(S(=O)(=O)Nc2nccs2)cc1)C1=NN(c2ccccc2)C(=O)CC1,"inconclusive [inhibitor, single point]",
O=C(Nc1ccccc1)N1CCCC(c2nc(-c3cccs3)no2)C1 (stereo not given),inactive,

Structure (SMILES),Potency,"activity change, negative = growth inhibition"
CSc1ccccc1NC(=O)CN1c2ccccc2CC1C (stereo not given),"inconclusive [inhibitor, single point]",
OC1CCC(NC(=S)Nc2ccc(SC(F)F)cc2)CC1 (stereo not given),"inconclusive [inhibitor, partial curve]",
COc1ccc(C)cc1NC(=O)CSc1ccc(-c2sc(C)nc2C)nn1,active: 13 µM,
CS(=O)(=O)c1cc([N+](=O)[O-])c(Sc2nc3ccccc3[nH]2)c([N+](=O)[O-])c1,active: 2.91 µM,
CN(C)C(=O)c1ccc(-c2nccc(NCc3cccs3)n2)cc1,inactive,
O=C(Cn1c(=O)n(CCc2c[nH]c3ccccc23)c(=O)c2cccnc21)Nc1ccccc1F,active: 14.6 µM,
O=C(N/N=C\c1ccccc1O)c1ccccc1O,active: 0.531 µM,
CCCCCCCCCC(=O)NNC(=O)c1c(O)c2ccccc2n(CC)c1=O,"inconclusive [inhibitor, single point]",
COc1ccccc1NC(=S)NC1CCCCCCCCCCC1,active: 10.3 µM,
CCN(CC)C(=O)CSc1ncnc2c1cnn2Cc1ccccc1,inactive,
S=C(NCCCc1cnc[nH]1)NCCCN(Cc1ccc(Cl)cc1)c1ccc(-c2ccccc2)cn1,"inconclusive [inhibitor, single point]",
COc1ccc(C2CC(c3ccc(Cl)cc3Cl)Nc3nc(N)nn32)cc1OC (stereo not given),"inconclusive [inhibitor, single point]",
COc1cccc(NC(=O)c2sc3nc(N4CCOCC4)c4c(c3c2N)CC(C)(C)OC4)c1,active: 5.8 µM,
O=C(c1cccs1)N1CCCC(c2nc3c(nnn3Cc3c(Cl)cccc3Cl)c(=O)[nH]2)C1 (stereo not given),"inconclusive [inhibitor, single point]",
CCN(C(=O)COC(=O)c1cc(-c2ccc(C)o2)nc2ccccc12)C1CCS(=O)(=O)C1 (stereo not given),"inconclusive [inhibitor, single point]",
COC(=O)c1c(C(=O)OC)c(-c2ccc(F)cc2)n2c1CS(=O)(=O)C2,"inconclusive [inhibitor, single point]",
CCC1=Nc2cc(C(=O)NCc3ccco3)ccc2Sc2ccc(C)cc21,active: 1.46 µM,
Cc1cc(O)c(C(C[N+](=O)[O-])c2ccc(Cl)cc2Cl)c(=O)o1 (stereo not given),active: 18.4 µM,
Cc1ccc(CNC(=O)CCCn2c(=O)c3ccccc3n(CC(=O)C(C)(C)C)c2=O)cc1,"inconclusive [inhibitor, single point]",
COc1ccc(CCC(=O)Nc2ccc(Cl)c(S(=O)(=O)N3CCCC3)c2)cc1,active: 20.6 µM,
COc1ccccc1/C=C/C(=O)NCC(=O)N/N=C/c1cc(Br)ccc1OC,"inconclusive [inhibitor, single point]",
CC(NC(=O)c1cccc(S(=O)(=O)N2CCN(Cc3ccccc3)CC2)c1)c1ccccc1Cl (stereo not given),"inconclusive [inhibitor, single point]",
O=C(CNC(=O)c1ccccc1F)NC1=NCCS1,"inconclusive [inhibitor, single point]",
Cc1ccc(-n2c(C)c3c(C)nnc(C)c3c2C)cc1C,active: 14.6 µM,

Structure (SMILES),Potency,"activity change, negative = growth inhibition"
CC(C)c1ccccc1-n1c(SCC(=O)N2CCc3ccccc3C2)nc2ccccc2c1=O,"inconclusive [inhibitor, single point]",
C[C@@]12CCC3[C@@](CCC4[C@@]3(C)CCC[C@@]4(C)C(=O)O)(CC1=O)C2 (stereo not given in full),inactive,
CCOC(=O)C1CCCN(C(=O)C(=O)Nc2ccc3nc4n(c(=O)c3c2)CCCCC4)C1 (stereo not given),"inconclusive [inhibitor, single point]",
CC(C)c1ccc(/C=c2\sc3nc(-c4ccncc4)nn3c2=O)cc1,"inconclusive [inhibitor, single point]",
Cc1cc(C(=O)N2CCN(c3ccccn3)CC2)c(C)o1,active: 17.8 µM,
COc1cc(NC(=O)n2ncc3cc(Cl)ccc32)cc(OC)c1,"inconclusive [inhibitor, single point]",
CCOC(=O)Cn1nnc2c(sc3nc4c(c(-c5ccc(Cl)cc5)c32)CCC4)c1=O,"inconclusive [inhibitor, single point]",
COc1ccc2oc(=O)c(-c3csc(/C(C#N)=C/c4ccc(F)cc4)n3)cc2c1,"inconclusive [inhibitor, single point]",
COc1ncc2nc(-c3cc(F)cc(F)c3)c(=O)n(C3CC3)c2n1,inactive,
CCc1nc2ccccc2c(C(=O)OCC(=O)N(C)Cc2ccccc2)c1C,"inconclusive [inhibitor, partial curve]",
CCOC(=O)c1cc(-c2ccccc2)nn1CC1CC(c2cccnc2)=NO1 (stereo not given),inactive,
O=c1onc2cnc3ccccc3n12,"inconclusive [inhibitor, full curve, poor fit]",
COc1cc(C)c(Cl)cc1S(=O)(=O)NCCc1c(C)[nH]c2ccccc12,"inconclusive [inhibitor, single point]",
Cc1ccnc(N/C=C(\C#N)c2nc(-c3cccc(Br)c3)cs2)c1,active: 20.6 µM,
COc1cccc(CNC(=O)CN2C(=O)N(c3cc(C)ccc3C)S(=O)(=O)c3ccccc32)c1OC,active: 13 µM,
NC(=O)c1c(NC(=O)c2cccnc2)sc2c1CCCC2,inactive,
CC(CCC(C)[n+]1cccc(Br)c1)[n+]1cccc(Br)c1 (stereo not given),"inconclusive [inhibitor, single point]",
C=CCOC(=O)C1=C(C)NC(SCC(=O)OCC)=C(C#N)C1c1ccc(O)c(OC)c1 (stereo not given),"inconclusive [inhibitor, single point]",
COc1cccc(NC(=O)Cn2cc(C(=O)C3CCCCC3)c3ccccc32)c1,"inconclusive [inhibitor, single point]",
Cc1cccc(C)c1NC(=O)CN(C)CCc1ccccc1,"inconclusive [inhibitor, single point]",
CCOC(=O)C1CCCN(CC(O)COc2ccc(OC)cc2C(C)(C)C)C1 (stereo not given),"inconclusive [inhibitor, single point]",
O=C(N/N=C/c1ccccc1F)NC12CC3CC(CC(C3)C1)C2,"inconclusive [inhibitor, single point]",
